Our source for the cell count values is the supplement of paper PMC4604168 (melanoma cell lines).

Test systems include A101D; A2058; A375.
Assay in all cases: cell count relative to DMSO control; melanoma cells; higher = more viable cells
Holding throughout (conditions): library dose: standard library concentration; 72 h

This is one part of the list. Repeats are few or missing, and single values can be far off.
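Also: cells treated in 1,536-well plates, then fixed and DAPI-stained, with nuclei counted from automated high-throughput microscope images.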

As to `Cc1ccc(Nc2nccc(N(C)c3ccc4c(C)n(C)nc4c3)n2)cc1S(N)(=O)=O` [Pazopanib] + Cn1cncc1[C@@](N)(c1ccc(Cl)cc1)c1ccc2c(c1)c(-c1cccc(Cl)c1)cc(=O)n2C [tipifarnib] (first compound 2 µM, partner dose 0.05 µM), the figures for the cell count in the experiment with A101D, in the experiment with A2058 and in the experiment with A375 were 64.7%, 81.4% and 89.7%, respectively.
With `CC1(C)CCC(c2ccc(Cl)cc2)=C(CN2CCN(c3ccc(C(=O)NS(=O)(=O)c4ccc(N[C@H](CCN5CCOCC5)CSc5ccccc5)c(S(=O)(=O)C(F)(F)F)c4)cc3)CC2)C1` + COCC[n+]1c2c(n(Cc3cnccn3)c1C)C(=O)c1ccccc1C2=O [YM155] (first compound 2 µM, partner dose 0.002 µM), the cell count turned out to be 35.7% in the experiment on A101D, 10.6% in the experiment with A2058 and 29.1% with A375.
The matching figures for `CC1(C)CCC(c2ccc(Cl)cc2)=C(CN2CCN(c3ccc(C(=O)NS(=O)(=O)c4ccc(N[C@H](CCN5CCOCC5)CSc5ccccc5)c(S(=O)(=O)C(F)(F)F)c4)cc3)CC2)C1` + Cc1cn(-c2cc(NC(=O)c3ccc(C)c(Nc4nccc(-c5cccnc5)n4)c3)cc(C(F)(F)F)c2)cn1 [nilotinib] (first compound 2 µM, partner dose 1 µM): 38.4%, 67.9% and 87.5%.
With `O=C(/C=C/c1cccnc1)NCCCCC1CCN(C(=O)c2ccccc2)CC1` + Nc1ncn([C@H]2C[C@H](O)[C@@H](CO)O2)c(=O)n1 [decitabine] (first compound 0.05 µM, partner dose 0.5 µM), the results for the cell count in the experiment on A101D, with A2058 and in the experiment with A375 were 82.8%, 86.8% and 84.1%, respectively.
For the compound `CC1(C)CCC(c2ccc(Cl)cc2)=C(CN2CCN(c3ccc(C(=O)NS(=O)(=O)c4ccc(N[C@H](CCN5CCOCC5)CSc5ccccc5)c(S(=O)(=O)C(F)(F)F)c4)cc3)CC2)C1` + Nc1nc(F)nc2c1ncn2[C@@H]1O[C@H](CO)[C@@H](O)[C@@H]1O [fludarabine] (first compound 2 µM, partner dose 1 µM), the cell count amounted to 43.3% in the experiment with A101D, 85.8% in the experiment with A2058 and 28.2% in the experiment with A375.
Consider `CC1(C)CCC(c2ccc(Cl)cc2)=C(CN2CCN(c3ccc(C(=O)NS(=O)(=O)c4ccc(N[C@H](CCN5CCOCC5)CSc5ccccc5)c(S(=O)(=O)C(F)(F)F)c4)cc3)CC2)C1` + O=C(Nc1cccc(Cl)c1)Nc1ncc(CCNc2ncnc3ccsc23)s1 [SNS314] (first compound 2 µM, partner dose 0.004 µM), for which the cell count with A101D came to 37.9%; with A2058, 55.8%; in the experiment on A375, 69.2%.
For `CC1(C)CCC(c2ccc(Cl)cc2)=C(CN2CCN(c3ccc(C(=O)NS(=O)(=O)c4ccc(N[C@H](CCN5CCOCC5)CSc5ccccc5)c(S(=O)(=O)C(F)(F)F)c4)cc3)CC2)C1` + Cn1sc(=O)n(Cc2ccccc2)c1=O [TDZD-8] (first compound 2 µM, partner dose 2 µM), the cell count with A101D turned out to be 58.8%; in the experiment with A2058 it was 77.7%; in the experiment with A375 it was 63.2%.
In the case of `CC1(C)CCC(c2ccc(Cl)cc2)=C(CN2CCN(c3ccc(C(=O)NS(=O)(=O)c4ccc(N[C@H](CCN5CCOCC5)CSc5ccccc5)c(S(=O)(=O)C(F)(F)F)c4)cc3)CC2)C1` + CC(C)C[C@H](NC(=O)[C@H](Cc1ccccc1)NC(=O)c1cnccn1)B(O)O [Bortezomib] (first compound 2 µM, partner dose 0.005 µM), the cell count in the experiment on A101D was determined as 7.95%; in the experiment on A2058, 11.4%; with A375 it was 47.7%.
On to `CC1(C)CCC(c2ccc(Cl)cc2)=C(CN2CCN(c3ccc(C(=O)NS(=O)(=O)c4ccc(N[C@H](CCN5CCOCC5)CSc5ccccc5)c(S(=O)(=O)C(F)(F)F)c4)cc3)CC2)C1` + Cc1ccc(Nc2nccc(N(C)c3ccc4c(C)n(C)nc4c3)n2)cc1S(N)(=O)=O [Pazopanib] (first compound 2 µM, partner dose 2 µM), for which the cell count was 50.9% with A101D, 95% in the experiment with A2058 and 63.7% in the experiment with A375.
In the case of `CC1(C)CCC(c2ccc(Cl)cc2)=C(CN2CCN(c3ccc(C(=O)NS(=O)(=O)c4ccc(N[C@H](CCN5CCOCC5)CSc5ccccc5)c(S(=O)(=O)C(F)(F)F)c4)cc3)CC2)C1` + CS(=O)(=O)c1ccc(C(=O)Nc2ccc(Cl)c(-c3ccccn3)c2)c(Cl)c1 [vismodegib] (first compound 2 µM, partner dose 5 µM), the cell count turned out to be 46.3% with A101D, 67.6% in the experiment on A2058 and 68.2% in the experiment on A375.
The corresponding values for `CC1(C)CCC(c2ccc(Cl)cc2)=C(CN2CCN(c3ccc(C(=O)NS(=O)(=O)c4ccc(N[C@H](CCN5CCOCC5)CSc5ccccc5)c(S(=O)(=O)C(F)(F)F)c4)cc3)CC2)C1` + Cc1cc(Nc2cc(N3CCN(C)CC3)nc(/C=C/c3ccccc3)n2)n[nH]1 [ENMD2076] (first compound 2 µM, partner dose 0.2 µM) are 40.3%, 84.7% and 82.4%.
On to `CC1(C)CCC(c2ccc(Cl)cc2)=C(CN2CCN(c3ccc(C(=O)NS(=O)(=O)c4ccc(N[C@H](CCN5CCOCC5)CSc5ccccc5)c(S(=O)(=O)C(F)(F)F)c4)cc3)CC2)C1` + CC(C)(C)c1cnc(CSc2cnc(NC(=O)C3CCNCC3)s2)o1 [SNS-032] (first compound 2 µM, partner dose 0.05 µM), for which the figures for the cell count in the experiment with A101D, in the experiment on A2058 and with A375 were 38.2%, 68.2% and 103%, respectively.
The matching figures for `O=C(/C=C/c1cccnc1)NCCCCC1CCN(C(=O)c2ccccc2)CC1` + C=CCNC1=C2C[C@@H](C)C[C@H](OC)[C@H](O)[C@@H](C)/C=C(\C)[C@H](OC(N)=O)[C@@H](OC)/C=C\C=C(/C)C(=O)NC(=CC1=O)C2=O [Tanespimycin] (first compound 0.05 µM, partner dose 0.01 µM): 77.9%, 71.7% and 80.3%.
On to `O=C(/C=C/c1cccnc1)NCCCCC1CCN(C(=O)c2ccccc2)CC1` + COc1ccc(Cl)c(Nc2nc3ccccc3nc2NS(=O)(=O)c2cccc(NC(=O)C(C)(C)N)c2)c1 [XL147] (first compound 0.05 µM, partner dose 4 µM), for which the cell count in the experiment on A101D worked out at 96.8%; in the experiment with A2058, 101%; with A375, 113%.
On to `Cc1ccc(Nc2nccc(N(C)c3ccc4c(C)n(C)nc4c3)n2)cc1S(N)(=O)=O` [Pazopanib] + C[C@]1(O)C[C@@H](c2nc(-c3ccc4ccc(-c5ccccc5)nc4c3)c3c(N)nccn32)C1 [OSI906] (first compound 2 µM, partner dose 2 µM), for which the cell count with A101D came out at 69.9%; in the experiment on A2058, 92.6%; with A375, 91.8%.
The matching figures for `CC1(C)CCC(c2ccc(Cl)cc2)=C(CN2CCN(c3ccc(C(=O)NS(=O)(=O)c4ccc(N[C@H](CCN5CCOCC5)CSc5ccccc5)c(S(=O)(=O)C(F)(F)F)c4)cc3)CC2)C1` + Cn1nnc2c(C(N)=O)ncn2c1=O [temozolomide] (first compound 2 µM, partner dose 10 µM): 38.6%, 32.7% and 76.1%.
On to `Cc1ccc(Nc2nccc(N(C)c3ccc4c(C)n(C)nc4c3)n2)cc1S(N)(=O)=O` [Pazopanib] + Nc1ccn([C@@H]2O[C@H](CO)[C@@H](O)C2(F)F)c(=O)n1 [gemcitabine] (first compound 2 µM, partner dose 0.002 µM), for which the cell count came to 89.7% in the experiment on A101D, 63.2% with A2058 and 74.3% with A375.
Turning to `O=C(/C=C/c1cccnc1)NCCCCC1CCN(C(=O)c2ccccc2)CC1` + Cc1cn(-c2cc(NC(=O)c3ccc(C)c(Nc4nccc(-c5cccnc5)n4)c3)cc(C(F)(F)F)c2)cn1 [nilotinib] (first compound 0.05 µM, partner dose 1 µM), the figures for the cell count in the experiment with A101D, with A2058 and in the experiment on A375 were 86.6%, 102% and 121%, respectively.
The corresponding values for `Cc1ccc(Nc2nccc(N(C)c3ccc4c(C)n(C)nc4c3)n2)cc1S(N)(=O)=O` [Pazopanib] + CCN(CC)CCNC(=O)c1c(C)[nH]c(/C=C2\C(=O)Nc3ccc(F)cc32)c1C [sunitinib] (first compound 2 µM, partner dose 2 µM) are 68.5%, 82.4% and 104%.
Regarding `Cc1ccc(Nc2nccc(N(C)c3ccc4c(C)n(C)nc4c3)n2)cc1S(N)(=O)=O` [Pazopanib] + C=C(c1ccc(C(=O)O)cc1)c1cc2c(cc1C)C(C)(C)CCC2(C)C [Bexarotene] (first compound 2 µM, partner dose 10 µM), the cell count in the experiment on A101D came out at 94.4%; with A2058, 105%; in the experiment on A375, 99.4%.
With `CC1(C)CCC(c2ccc(Cl)cc2)=C(CN2CCN(c3ccc(C(=O)NS(=O)(=O)c4ccc(N[C@H](CCN5CCOCC5)CSc5ccccc5)c(S(=O)(=O)C(F)(F)F)c4)cc3)CC2)C1` + CNC(=O)c1cc(Oc2ccc(NC(=O)Nc3ccc(Cl)c(C(F)(F)F)c3)cc2)ccn1 [sorafenib] (first compound 2 µM, partner dose 2 µM), the cell count in the experiment on A101D stood at 56.2%; in the experiment on A2058, 98.5%; with A375, 88.7%.
For `Cc1ccc(Nc2nccc(N(C)c3ccc4c(C)n(C)nc4c3)n2)cc1S(N)(=O)=O` [Pazopanib] + Cn1c(Nc2ccc(C(F)(F)F)cc2)nc2cc(Oc3ccnc(-c4ncc(C(F)(F)F)[nH]4)c3)ccc21 [CHIR265] (first compound 2 µM, partner dose 0.4 µM), the cell count amounted to 59.4% with A101D, 51% with A2058 and 93.9% in the experiment on A375.
On to `O=C(/C=C/c1cccnc1)NCCCCC1CCN(C(=O)c2ccccc2)CC1` + NCC(=O)Nc1ccc(-n2nc(C(F)(F)F)cc2-c2ccc3c(ccc4ccccc43)c2)cc1 [OSU03012] (first compound 0.05 µM, partner dose 5 µM), for which the cell count was found to be 81.4% in the experiment on A101D, 79.2% in the experiment on A2058 and 60.1% in the experiment on A375.
Turning to `CC1(C)CCC(c2ccc(Cl)cc2)=C(CN2CCN(c3ccc(C(=O)NS(=O)(=O)c4ccc(N[C@H](CCN5CCOCC5)CSc5ccccc5)c(S(=O)(=O)C(F)(F)F)c4)cc3)CC2)C1` + CC1(C)NC(=O)N(c2ccc([N+](=O)[O-])c(C(F)(F)F)c2)C1=O [nilutamide] (first compound 2 µM, partner dose 5 µM), the cell count in the experiment with A101D is 43%; with A2058, 81.3%; in the experiment on A375, 64.7%.
For the compound `Cc1ccc(Nc2nccc(N(C)c3ccc4c(C)n(C)nc4c3)n2)cc1S(N)(=O)=O` [Pazopanib] + C[C@]1(c2nc3c(C(N)=O)cccc3[nH]2)CCCN1 [Veliparib] (first compound 2 µM, partner dose 7 µM), the cell count worked out at 63.8% with A101D, 77.6% with A2058 and 75.2% in the experiment with A375.
